The list shows a part of the results.
Legend:
Assay in all cases: glycan array binding signal (z-score within array); higher = stronger binding
Conditions in all cases: glycan notation: IUPAC condensed, linker removed
Glc(b1-6)Glc = target: Glc(b1-6)Glc
Outline: (§1)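 The binding signal is a Z-score computed within each array and averaged over linkers. Arrays of the same protein sequence at different concentrations or buffers were also averaged together. Data originate from 3228 arrays in the Consortium for Functional Glycomics database, kept only where the protein sequence was available.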

GlcA(b1-3)Gal = target: GlcA(b1-3)Gal
Outline: as §1

GlcA(b1-3)GlcNAc = target: GlcA(b1-3)GlcNAc
Outline: as §1

GlcA(b1-6)Gal = target: GlcA(b1-6)Gal
Outline: as §1

[1] = target: GlcA3S(b1-3)Gal(b1-4)GlcNAc(b1-2)Man
Outline: as §1

[2] = target: GlcA3S(b1-3)Gal(b1-4)GlcNAc(b1-3)Gal(b1-4)Glc
Outline: as §1

[3] = target: GlcNAc(a1-3)Gal(b1-4)GlcNAc
Outline: as §1

[4] = target: GlcNAc(a1-4)Gal(b1-3)GlcNAc
Outline: as §1

[5] = target: GlcNAc(a1-4)Gal(b1-4)GalNAc
Outline: as §1

[6] = target: GlcNAc(a1-4)Gal(b1-4)GlcNAc
Outline: as §1

[7] = target: GlcNAc(a1-4)Gal(b1-4)GlcNAc(b1-3)Gal(b1-4)Glc
Outline: as §1

[8] = target: GlcNAc(a1-4)Gal(b1-4)GlcNAc(b1-3)Gal(b1-4)GlcNAc
Outline: as §1

[9] = target: GlcNAc(a1-4)Gal(b1-4)GlcNAc(b1-3)Gal(b1-4)GlcNAc(b1-3)Gal(b1-4)GlcNAc
Outline: as §1

[10] = target: GlcNAc(a1-4)Gal(b1-4)GlcNAc(b1-3)Gal(b1-4)[Fuc(a1-3)]GlcNAc(b1-3)Gal(b1-4)[Fuc(a1-3)]GlcNAc
Outline: as §1

[11] = target: GlcNAc(a1-6)Gal(b1-4)GlcNAc
Outline: as §1

[12] = target: GlcNAc(b1-2)Gal(b1-3)GalNAc
Outline: as §1

[13] = target: GlcNAc(b1-2)Man(a1-3)[GlcNAc(b1-2)Man(a1-6)]Man(b1-4)GlcNAc(b1-4)GlcNAc
Outline: as §1

[14] = target: GlcNAc(b1-2)Man(a1-3)[GlcNAc(b1-2)Man(a1-6)]Man(b1-4)GlcNAc(b1-4)[Fuc(a1-6)]GlcNAc
Outline: as §1

[15] = target: GlcNAc(b1-2)Man(a1-3)[GlcNAc(b1-4)][GlcNAc(b1-2)Man(a1-6)]Man(b1-4)GlcNAc(b1-4)GlcNAc
Outline: as §1

[16] = target: GlcNAc(b1-2)Man(a1-3)[GlcNAc(b1-4)][GlcNAc(b1-2)Man(a1-6)]Man(b1-4)GlcNAc(b1-4)[Fuc(a1-6)]GlcNAc
Outline: as §1

[17] = target: GlcNAc(b1-2)[GlcNAc(b1-4)]Man(a1-3)[GlcNAc(b1-2)Man(a1-6)]Man(b1-4)GlcNAc(b1-4)GlcNAc
Outline: as §1

[18] = target: GlcNAc(b1-2)[GlcNAc(b1-4)]Man(a1-3)[GlcNAc(b1-4)][GlcNAc(b1-2)Man(a1-6)]Man(b1-4)GlcNAc(b1-4)GlcNAc
Outline: as §1

[19] = target: GlcNAc(b1-2)[GlcNAc(b1-4)]Man(a1-3)[GlcNAc(b1-4)][GlcNAc(b1-2)[GlcNAc(b1-6)]Man(a1-6)]Man(b1-4)GlcNAc(b1-4)GlcNAc
Outline: as §1

[20] = target: GlcNAc(b1-2)[GlcNAc(b1-4)]Man(a1-3)[GlcNAc(b1-4)][GlcNAc(b1-2)[GlcNAc(b1-6)]Man(a1-6)]Man(b1-4)GlcNAc(b1-4)[Fuc(a1-6)]GlcNAc
Outline: as §1

[21] = target: GlcNAc(b1-2)[GlcNAc(b1-6)]Man(a1-6)[GlcNAc(b1-2)Man(a1-3)]Man(b1-4)GlcNAc(b1-4)GlcNAc
Outline: as §1

[22] = target: GlcNAc(b1-2)[GlcNAc(b1-6)]Man(a1-6)[GlcNAc(b1-2)Man(a1-3)]Man(b1-4)GlcNAc(b1-4)[Fuc(a1-6)]GlcNAc
Outline: as §1

[23] = target: GlcNAc(b1-2)[GlcNAc(b1-6)]Man(a1-6)[GlcNAc(b1-4)][GlcNAc(b1-2)Man(a1-3)]Man(b1-4)GlcNAc(b1-4)GlcNAc
Outline: as §1

GlcNAc(b1-3)Fuc = target: GlcNAc(b1-3)Fuc
Outline: as §1

GlcNAc(b1-3)Gal = target: GlcNAc(b1-3)Gal
Outline: as §1

[24] = target: GlcNAc(b1-3)Gal(b1-3)GalNAc
Outline: as §1

GlcNAc(b1-3)Gal(b1-4)Glc = target: GlcNAc(b1-3)Gal(b1-4)Glc
Outline: as §1

[25] = target: GlcNAc(b1-3)Gal(b1-4)GlcNAc
Outline: as §1

[26] = target: GlcNAc(b1-3)Gal(b1-4)GlcNAc(b1-2)Man(a1-3)[GlcNAc(b1-3)Gal(b1-4)GlcNAc(b1-2)Man(a1-6)]Man(b1-4)GlcNAc(b1-4)GlcNAc
Outline: as §1

[27] = target: GlcNAc(b1-3)Gal(b1-4)GlcNAc(b1-2)Man(a1-3)[GlcNAc(b1-3)Gal(b1-4)GlcNAc(b1-2)Man(a1-6)]Man(b1-4)GlcNAc(b1-4)[Fuc(a1-6)]GlcNAc
Outline: as §1

[28] = target: GlcNAc(b1-3)Gal(b1-4)GlcNAc(b1-2)[GlcNAc(b1-3)Gal(b1-4)GlcNAc(b1-6)]Man(a1-6)[GlcNAc(b1-3)Gal(b1-4)GlcNAc(b1-2)Man(a1-3)]Man(b1-4)GlcNAc(b1-4)GlcNAc
Outline: as §1

[29] = target: GlcNAc(b1-3)Gal(b1-4)GlcNAc(b1-3)Gal(b1-4)GlcNAc
Outline: as §1

[30] = target: GlcNAc(b1-3)Gal(b1-4)GlcNAc(b1-3)Gal(b1-4)GlcNAc(b1-2)Man(a1-3)[GlcNAc(b1-3)Gal(b1-4)GlcNAc(b1-3)Gal(b1-4)GlcNAc(b1-2)Man(a1-6)]Man(b1-4)GlcNAc(b1-4)GlcNAc
Outline: as §1

[31] = target: GlcNAc(b1-3)Gal(b1-4)GlcNAc(b1-3)Gal(b1-4)GlcNAc(b1-2)Man(a1-3)[GlcNAc(b1-3)Gal(b1-4)GlcNAc(b1-3)Gal(b1-4)GlcNAc(b1-2)Man(a1-6)]Man(b1-4)GlcNAc(b1-4)[Fuc(a1-6)]GlcNAc
Outline: as §1

[32] = target: GlcNAc(b1-3)Gal(b1-4)GlcNAc(b1-3)Gal(b1-4)GlcNAc(b1-2)[GlcNAc(b1-3)Gal(b1-4)GlcNAc(b1-3)Gal(b1-4)GlcNAc(b1-6)]Man(a1-6)[GlcNAc(b1-3)Gal(b1-4)GlcNAc(b1-3)Gal(b1-4)GlcNAc(b1-2)Man(a1-3)]Man(b1-4)GlcNAc(b1-4)[Fuc(a1-6)]GlcNAc
Outline: as §1

[33] = target: GlcNAc(b1-3)Gal(b1-4)GlcNAc(b1-3)Gal(b1-4)GlcNAc(b1-3)Gal(b1-4)GlcNAc(b1-2)Man(a1-3)[GlcNAc(b1-3)Gal(b1-4)GlcNAc(b1-3)Gal(b1-4)GlcNAc(b1-3)Gal(b1-4)GlcNAc(b1-2)Man(a1-6)]Man(b1-4)GlcNAc(b1-4)GlcNAc
Outline: as §1

[34] = target: GlcNAc(b1-3)Gal(b1-4)GlcNAc(b1-3)Gal(b1-4)GlcNAc(b1-3)Gal(b1-4)GlcNAc(b1-2)Man(a1-3)[GlcNAc(b1-3)Gal(b1-4)GlcNAc(b1-3)Gal(b1-4)GlcNAc(b1-3)Gal(b1-4)GlcNAc(b1-2)Man(a1-6)]Man(b1-4)GlcNAc(b1-4)[Fuc(a1-6)]GlcNAc
Outline: as §1

[35] = target: GlcNAc(b1-3)Gal(b1-4)GlcNAc(b1-3)Gal(b1-4)GlcNAc(b1-3)Gal(b1-4)GlcNAc(b1-2)[GlcNAc(b1-3)Gal(b1-4)GlcNAc(b1-3)Gal(b1-4)GlcNAc(b1-3)Gal(b1-4)GlcNAc(b1-6)]Man(a1-6)[GlcNAc(b1-3)Gal(b1-4)GlcNAc(b1-3)Gal(b1-4)GlcNAc(b1-3)Gal(b1-4)GlcNAc(b1-2)Man(a1-3)]Man(b1-4)GlcNAc(b1-4)[Fuc(a1-6)]GlcNAc
Outline: as §1

[36] = target: GlcNAc(b1-3)Gal(b1-4)GlcNAc(b1-3)Gal(b1-4)GlcNAc(b1-3)Gal(b1-4)GlcNAc(b1-3)Gal(b1-4)GlcNAc(b1-2)Man(a1-3)[GlcNAc(b1-3)Gal(b1-4)GlcNAc(b1-3)Gal(b1-4)GlcNAc(b1-3)Gal(b1-4)GlcNAc(b1-3)Gal(b1-4)GlcNAc(b1-2)Man(a1-6)]Man(b1-4)GlcNAc(b1-4)GlcNAc
Outline: as §1

[37] = target: GlcNAc(b1-3)Gal(b1-4)GlcNAc(b1-3)Gal(b1-4)GlcNAc(b1-3)Gal(b1-4)GlcNAc(b1-3)Gal(b1-4)GlcNAc(b1-2)Man(a1-3)[GlcNAc(b1-3)Gal(b1-4)GlcNAc(b1-3)Gal(b1-4)GlcNAc(b1-3)Gal(b1-4)GlcNAc(b1-3)Gal(b1-4)GlcNAc(b1-2)Man(a1-6)]Man(b1-4)GlcNAc(b1-4)[Fuc(a1-6)]GlcNAc
Outline: as §1

[38] = target: GlcNAc(b1-3)Gal(b1-4)GlcNAc(b1-3)Gal(b1-4)GlcNAc(b1-3)Gal(b1-4)GlcNAc(b1-3)Gal(b1-4)GlcNAc(b1-2)[GlcNAc(b1-3)Gal(b1-4)GlcNAc(b1-3)Gal(b1-4)GlcNAc(b1-3)Gal(b1-4)GlcNAc(b1-3)Gal(b1-4)GlcNAc(b1-6)]Man(a1-6)[GlcNAc(b1-3)Gal(b1-4)GlcNAc(b1-3)Gal(b1-4)GlcNAc(b1-3)Gal(b1-4)GlcNAc(b1-3)Gal(b1-4)GlcNAc(b1-2)Man(a1-3)]Man(b1-4)GlcNAc(b1-4)[Fuc(a1-6)]GlcNAc
Outline: as §1

B1: PX14375C-bth-509-28-509 (Bacteroides thetaiotaomicron) (protein)
chain: RSPQGQFTEDDNPNALVNGKIYNVYTMMRSFDITAGTPAIAIHYLRSEDSEKGSIPSDGSDVAEMYDDFLYTPTNGLLGSYWGKNYAIIYQCNDILDAIAEKETAGQTETEDIINKGEASFFRAYCYFNLVRAFGEVPLVTYKINDASEANIPKTTADKIYEQIDTDLKTAEESLPETWSTEYTGRLTWGAARSLHARTYMMRSDWDNMYKASTDVINKGLYNLKTPYNEIFTDDGENSGGSIFELQCTATAALPQSDVIGSQFCEVQGVRGAGQWDLGWGWHMATQLMADAYETGDPRKNATLLYFRKTDDEPITPENTNEPYGESPISPAMGAYFNKKAYTDPALRKEYTNKGFWVNIRLIRYSDVVLMAAEAANEKNIPGEAVDYLEMVRARARGTNTNILPKITTNDQGELREAIRHERRVELGLEPDRFYDLVRWGIASEVLHAAGKVNYQDKNALLPLPQSEIDKSKGVLVQNPDY
glycan array binding signal (z-score) (Glc(b1-6)Glc): -0.146 | glycan array binding signal (z-score) (GlcA(b1-3)Gal): -0.407 | glycan array binding signal (z-score) (GlcA(b1-3)GlcNAc): -0.189 | glycan array binding signal (z-score) (GlcA(b1-6)Gal): -0.403 | glycan array binding signal (z-score) [1]: -0.295 | glycan array binding signal (z-score) [2]: -0.335 | glycan array binding signal (z-score) [3]: -0.468 | glycan array binding signal (z-score) [4]: -0.442 | glycan array binding signal (z-score) [5]: -0.497 | glycan array binding signal (z-score) [6]: -0.167 | glycan array binding signal (z-score) [7]: -0.093 | glycan array binding signal (z-score) [8]: -0.071 | glycan array binding signal (z-score) [9]: -0.456 | glycan array binding signal (z-score) [10]: -0.057 | glycan array binding signal (z-score) [11]: -0.256 | glycan array binding signal (z-score) [12]: -0.222 | glycan array binding signal (z-score) [13]: -0.306 | glycan array binding signal (z-score) [14]: -0.22 | glycan array binding signal (z-score) [15]: -0.21 | glycan array binding signal (z-score) [16]: -0.23 | glycan array binding signal (z-score) [17]: 0.083 | glycan array binding signal (z-score) [18]: -0.359 | glycan array binding signal (z-score) [19]: -0.249 | glycan array binding signal (z-score) [20]: -0.189 | glycan array binding signal (z-score) [21]: 0.222 | glycan array binding signal (z-score) [22]: 0.211 | glycan array binding signal (z-score) [23]: -0.397 | glycan array binding signal (z-score) (GlcNAc(b1-3)Fuc): -0.313 | glycan array binding signal (z-score) (GlcNAc(b1-3)Gal): -0.084 | glycan array binding signal (z-score) [24]: -0.25 | glycan array binding signal (z-score) (GlcNAc(b1-3)Gal(b1-4)Glc): -0.267 | glycan array binding signal (z-score) [25]: -0.266 | glycan array binding signal (z-score) [26]: -0.185 | glycan array binding signal (z-score) [27]: -0.2 | glycan array binding signal (z-score) [28]: 0.171 | glycan array binding signal (z-score) [29]: -0.131 | glycan array binding signal (z-score) [30]: 3.19 | glycan array binding signal (z-score) [31]: -0.055 | glycan array binding signal (z-score) [32]: 0.02 | glycan array binding signal (z-score) [33]: -0.148 | glycan array binding signal (z-score) [34]: 0.036 | glycan array binding signal (z-score) [35]: -0.11 | glycan array binding signal (z-score) [36]: -0.264 | glycan array binding signal (z-score) [37]: -0.099 | glycan array binding signal (z-score) [38]: -0.216
